Source: the supplement of paper PMC4967469
pIC50: −log10 of the molar value. By IC50 is meant the dose at which the fit gives 50% viability; a fit beyond the top or the lowest dose is shown as a bound at that dose. AUC sums up the same curve from the lowest dose to the 256-fold higher top dose: 1 means no effect, lower means more sensitive. For part of these data: Any top dose called inferred is not printed in the source and was worked back from the curve model.

Tests used:
Test in all cases: Viability of human cancer cell lines after 72 h of drug (GDSC screen)
[1] = compound: CC(=O)Nc1cccc(-n2c(=O)n(C3CC3)c(=O)c3c(Nc4ccc(I)cc4F)n(C)c(=O)c(C)c32)c1 [Trametinib]; conditions: top dose 1 µM
Experimental: (§1)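 Human cancer cell lines in 384-well plates, medium with 10% serum, drug for 72 h over a 256-fold dose range (nine 2-fold or five 4-fold steps up to the top dose). Adherent lines were fixed and stained with the nucleic acid dye Syto60, suspension lines read with resazurin; signal relative to control wells, capped at 0 and 100%. One two-parameter sigmoid per drug and line, fitted in a mixed model over all curves with the slope shared within a line.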

[2] = compound: CCN1CCN(Cc2ccc(NC(=O)c3ccc(C)c(/C=C/c4cnc5[nH]ccc5c4OC)c3)cc2C(F)(F)F)CC1 [HG-6-64-1]; conditions: top dose 5.12 µM; top dose inferred
Experimental: as §1

[3] = compound: CCNC(=O)C[C@@H]1N=C(c2ccc(Cl)cc2)c2cc(OC)ccc2-n2c(C)nnc21 [I-BET-762]; conditions: top dose 20 µM; top dose inferred
Experimental: as §1

[4] = compound: CCc1cncnc1N1CCN(Cc2nc3ccc(C(F)(F)F)cc3[nH]2)CC1 [PF-4708671]; conditions: top dose 10 µM; top dose inferred
Experimental: as §1

[5] = compound: COc1cc2nccc(Oc3ccc(NC(=O)Nc4cc(C)on4)c(Cl)c3)c2cc1OC [AV-951]; conditions: top dose 0.128 µM; top dose inferred
Experimental: as §1

[6] = compound: O=C(NC(COc1ccc2[nH]c(=O)[nH]c2c1)c1ccccc1)c1cccn(Cc2ccc(F)c(F)c2)c1=O [KIN001-244]; conditions: top dose 20 µM; top dose inferred
Experimental: as §1

22RV1 (prostate, adherent)
AUC [1]: 0.926 | pIC50 [1]: < 6.00 | AUC [2]: 0.864 | pIC50 [2]: < 5.29 | AUC [3]: 0.818 | pIC50 [3]: 4.83 | AUC [4]: 0.929 | pIC50 [4]: < 5.00 | AUC [5]: 0.957 | pIC50 [5]: < 6.89 | AUC [6]: 0.777 | pIC50 [6]: 5.00

42-MG-BA (glioma, adherent)
AUC [1]: 0.863 | pIC50 [1]: 6.01 | AUC [2]: 0.65 | pIC50 [2]: 6.07 | AUC [3]: 0.936 | pIC50 [3]: < 4.70 | AUC [4]: 0.939 | pIC50 [4]: < 5.00 | AUC [5]: 0.929 | pIC50 [5]: < 6.89 | AUC [6]: 0.882 | pIC50 [6]: < 4.70

451Lu (melanoma, adherent)
AUC [1]: 0.078 | pIC50 [1]: > 8.41 | AUC [2]: 0.572 | pIC50 [2]: 6.30 | AUC [3]: 0.983 | pIC50 [3]: < 4.70 | AUC [4]: 0.921 | pIC50 [4]: < 5.00 | AUC [5]: 0.988 | pIC50 [5]: < 6.89 | AUC [6]: 0.923 | pIC50 [6]: < 4.70

639-V (bladder, adherent)
AUC [1]: 0.728 | pIC50 [1]: 6.61 | AUC [2]: 0.679 | pIC50 [2]: 6.03 | AUC [3]: 0.97 | pIC50 [3]: < 4.70 | AUC [4]: 0.968 | pIC50 [4]: < 5.00 | AUC [5]: 0.99 | pIC50 [5]: < 6.89 | AUC [6]: 0.956 | pIC50 [6]: < 4.70

769-P (kidney, adherent)
AUC [1]: 0.495 | pIC50 [1]: 7.22 | AUC [2]: 0.673 | pIC50 [2]: 5.99 | AUC [3]: 0.911 | pIC50 [3]: < 4.70 | AUC [5]: 0.972 | pIC50 [5]: < 6.89 | AUC [6]: 0.872 | pIC50 [6]: < 4.70

786-0 (kidney, adherent)
AUC [1]: 0.734 | pIC50 [1]: 6.56 | AUC [2]: 0.481 | pIC50 [2]: 6.55 | AUC [3]: 0.903 | pIC50 [3]: < 4.70 | AUC [4]: 0.792 | pIC50 [4]: 5.38 | AUC [5]: 0.98 | pIC50 [5]: < 6.89 | AUC [6]: 0.868 | pIC50 [6]: 4.80

5637 (bladder, adherent)
AUC [1]: 0.916 | pIC50 [1]: < 6.00 | AUC [2]: 0.752 | pIC50 [2]: 5.81 | AUC [3]: 0.768 | pIC50 [3]: 5.17 | AUC [4]: 0.974 | pIC50 [4]: < 5.00 | AUC [5]: 0.989 | pIC50 [5]: < 6.89 | AUC [6]: 0.914 | pIC50 [6]: < 4.70

8305C (thyroid, adherent)
AUC [1]: 0.411 | pIC50 [1]: 7.48 | AUC [2]: 0.53 | pIC50 [2]: 6.40 | AUC [3]: 0.982 | pIC50 [3]: < 4.70 | AUC [4]: 0.898 | pIC50 [4]: < 5.00 | AUC [5]: 0.978 | pIC50 [5]: < 6.89 | AUC [6]: 0.936 | pIC50 [6]: < 4.70

8505C (thyroid, adherent)
AUC [1]: 0.404 | pIC50 [1]: 7.47 | AUC [2]: 0.755 | pIC50 [2]: 5.74 | AUC [3]: 0.869 | pIC50 [3]: < 4.70 | AUC [4]: 0.949 | pIC50 [4]: < 5.00 | AUC [5]: 0.98 | pIC50 [5]: < 6.89 | AUC [6]: 0.822 | pIC50 [6]: 4.90

23132-87 (stomach, adherent)
AUC [1]: 0.774 | pIC50 [1]: 6.39 | AUC [2]: 0.859 | pIC50 [2]: 5.35 | AUC [3]: 0.896 | pIC50 [3]: < 4.70 | AUC [4]: 0.943 | pIC50 [4]: < 5.00 | AUC [5]: 0.985 | pIC50 [5]: < 6.89 | AUC [6]: 0.786 | pIC50 [6]: 5.05

A172 (glioma, adherent)
AUC [1]: 0.607 | pIC50 [1]: 6.91 | AUC [2]: 0.621 | pIC50 [2]: 6.17 | AUC [3]: 0.965 | pIC50 [3]: < 4.70 | AUC [4]: 0.928 | pIC50 [4]: < 5.00 | AUC [5]: 0.989 | pIC50 [5]: < 6.89 | AUC [6]: 0.883 | pIC50 [6]: < 4.70

A204 (rhabdomyosarcoma, adherent)
AUC [1]: 0.707 | pIC50 [1]: 6.54 | AUC [2]: 0.412 | pIC50 [2]: 6.77 | AUC [3]: 0.757 | pIC50 [3]: 5.05 | AUC [4]: 0.924 | pIC50 [4]: < 5.00 | AUC [5]: 0.748 | pIC50 [5]: 7.28 | AUC [6]: 0.784 | pIC50 [6]: 4.95

A431 (skin, adherent)
AUC [1]: 0.822 | pIC50 [1]: 6.26 | AUC [2]: 0.539 | pIC50 [2]: 6.39 | AUC [3]: 0.986 | pIC50 [3]: < 4.70 | AUC [4]: 0.969 | pIC50 [4]: < 5.00 | AUC [5]: 0.985 | pIC50 [5]: < 6.89 | AUC [6]: 0.821 | pIC50 [6]: 4.96

A498 (kidney, adherent)
AUC [1]: 0.728 | pIC50 [1]: 6.40 | AUC [2]: 0.565 | pIC50 [2]: 6.28 | AUC [3]: 0.976 | pIC50 [3]: < 4.70 | AUC [4]: 0.947 | pIC50 [4]: < 5.00 | AUC [5]: 0.979 | pIC50 [5]: < 6.89 | AUC [6]: 0.971 | pIC50 [6]: < 4.70

A673 (rhabdomyosarcoma, adherent)
AUC [1]: 0.888 | pIC50 [1]: 6.03 | AUC [2]: 0.794 | pIC50 [2]: 5.68 | AUC [3]: 0.973 | pIC50 [3]: < 4.70 | AUC [4]: 0.99 | pIC50 [4]: < 5.00 | AUC [5]: 0.99 | pIC50 [5]: < 6.89 | AUC [6]: 0.954 | pIC50 [6]: < 4.70

A2780 (ovary, semi-adherent)
AUC [1]: 0.5 | pIC50 [1]: 7.20 | AUC [2]: 0.797 | pIC50 [2]: 5.60 | AUC [3]: 0.64 | pIC50 [3]: 5.51 | AUC [4]: 0.864 | pIC50 [4]: 5.04 | AUC [5]: 0.981 | pIC50 [5]: < 6.89 | AUC [6]: 0.839 | pIC50 [6]: 4.84

ABC-1 (lung adenocarcinoma, adherent)
AUC [1]: 0.676 | pIC50 [1]: 6.67 | AUC [2]: 0.785 | pIC50 [2]: 5.57 | AUC [3]: 0.957 | pIC50 [3]: < 4.70 | AUC [4]: 0.872 | pIC50 [4]: < 5.00 | AUC [5]: 0.982 | pIC50 [5]: < 6.89 | AUC [6]: 0.866 | pIC50 [6]: < 4.70

ACHN (kidney, adherent)
AUC [1]: 0.514 | pIC50 [1]: 7.16 | AUC [2]: 0.545 | pIC50 [2]: 6.37 | AUC [3]: 0.886 | pIC50 [3]: < 4.70 | AUC [4]: 0.928 | pIC50 [4]: < 5.00 | AUC [5]: 0.98 | pIC50 [5]: < 6.89 | AUC [6]: 0.874 | pIC50 [6]: < 4.70

AN3-CA (endometrium, adherent)
AUC [1]: 0.808 | pIC50 [1]: 6.24 | AUC [2]: 0.387 | pIC50 [2]: 6.82 | AUC [3]: 0.985 | pIC50 [3]: < 4.70 | AUC [4]: 0.982 | pIC50 [4]: < 5.00 | AUC [5]: 0.985 | pIC50 [5]: < 6.89 | AUC [6]: 0.882 | pIC50 [6]: < 4.70

ASH-3 (thyroid, adherent)
AUC [1]: 0.181 | pIC50 [1]: 8.16 | AUC [2]: 0.904 | pIC50 [2]: < 5.29 | AUC [3]: 0.988 | pIC50 [3]: < 4.70 | AUC [4]: 0.987 | pIC50 [4]: < 5.00 | AUC [5]: 0.978 | pIC50 [5]: < 6.89 | AUC [6]: 0.97 | pIC50 [6]: < 4.70

CHSA0011 (chondrosarcoma, adherent)
AUC [1]: 0.438 | pIC50 [1]: 7.40 | AUC [2]: 0.924 | pIC50 [2]: < 5.29 | AUC [3]: 0.958 | pIC50 [3]: < 4.70 | AUC [5]: 0.954 | pIC50 [5]: < 6.89 | AUC [6]: 0.902 | pIC50 [6]: < 4.70

COLO-783 (melanoma, adherent)
AUC [1]: 0.34 | pIC50 [1]: 7.64 | AUC [2]: 0.971 | pIC50 [2]: < 5.29 | AUC [3]: 0.925 | pIC50 [3]: < 4.70 | AUC [5]: 0.99 | pIC50 [5]: < 6.89 | AUC [6]: 0.979 | pIC50 [6]: < 4.70
